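Briefly, cells in 96-well plates were exposed to five compound concentrations for 48 h, and endpoints were estimated by linear interpolation. GI50 marks 50% less growth. TGI: concentration producing complete growth inhibition.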 Some results are limits rather than exact numbers.

Six molecules from PubChem BioAssay (NCI) can be followed below.

The test system of this assay is NCI-H322M lung. Description: NCI anticancer screen, dose series, 48 h.

In the case of `CCOc1ccc2ncc(C#Cc3cncc(C(=O)Nc4ccc(CN5CCN(C)CC5)c(C(F)(F)F)c4)c3)n2n1`, the GI50 was 1.45 µM and the TGI came to 16.5 µM.
Take `CC[C@]12C=CCN3CC[C@@]4(c5ccc(OC)cc5N(C)[C@H]4[C@@](O)(C(=O)OC)[C@@H]1OC(=O)CCCC[P+](C1CCCCC1)(C1CCCCC1)C1CCCCC1)[C@@H]32`: the GI50 is 5.3 µM and the TGI is 18.4 µM.
In the same order, the values of `CCOC(=O)c1ccc(NC(=S)NC(=O)c2ccc(NC(=O)C(C)C)cc2OC)cc1` are 22.2 µM and over 100 µM.
In the same order, the values of `COc1ccc(-c2cc(C(=O)N=Nc3c(O)[nH]c4ccc(Br)cc34)c3ccccc3n2)cc1` are 14.4 µM and 29.6 µM.
As for `COc1ccc2[nH]c(O)c(N=NC(=O)COc3ccc(NC(=O)Nc4ccc(Cl)cc4)cc3)c2c1`, the GI50 was 10.3 µM and the TGI worked out at 30.8 µM.
`O=C(CSc1nnc(-c2ccc(-c3nc4ccc(Cl)cc4[nH]3)cc2)o1)Nc1ccccc1`: the GI50 is 3.98 µM and the TGI was 18.7 µM.
